According to US6153587A, “Conformationally constrained LH-RH analogues, their uses and pharmaceutical compositions containing them” (Laboratoire THERAMEX, priority 1996, dated 2000):
Part of at least one peptide drawing is inferred or uncertain, most often the ends. Some compounds share one wording; it may come from a single statement.

Key:
Assay type in all cases: in vivo
LH-RH receptors [1] = target: T1, LH-RH receptors (Rattus norvegicus, UniProt P30969); assay: Total plasma testosterone in male Sprague-Dawley rats after subcutaneous injection; details: 30 nanograms/kg subcutaneous, plasma at two hours
T1 construct: from tissue; host or cells: rat pituitary membrane fraction (female Sprague Dawley)
T1 sequence (P30969 1-327): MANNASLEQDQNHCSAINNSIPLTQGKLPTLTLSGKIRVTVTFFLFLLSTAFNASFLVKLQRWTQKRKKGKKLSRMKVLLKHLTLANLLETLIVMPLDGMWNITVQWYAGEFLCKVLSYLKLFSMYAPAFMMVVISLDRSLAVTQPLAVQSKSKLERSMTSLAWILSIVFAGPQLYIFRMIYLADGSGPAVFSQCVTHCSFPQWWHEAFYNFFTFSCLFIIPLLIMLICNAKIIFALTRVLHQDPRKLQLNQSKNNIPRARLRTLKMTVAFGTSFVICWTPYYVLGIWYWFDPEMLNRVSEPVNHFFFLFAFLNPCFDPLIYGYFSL
Description: (§1) The peptides according to the general formula (IIa) exert an agonist activity upon the LH-RH receptors in vivo, resulting in the induction of ovulation in the female and in the stimulation of testosterone secretion in the male following acute subcutaneous administration.
Adult male Sprague-Dawley rats are treated by a subcutaneous injection of LH-RH agonists at the same dose of 30 nanograms/kg dissolved in PBS. Two hours later, blood samples are drawn for total plasma testosterone measurement by direct radioimmunoassay (Immunotech). At this dose, LH-RH itself is not active standard LH-RH agonists and selected examples according to formula (Ila) are compared in Table 3 below: […]

LH-RH receptors [2] = target: T1, LH-RH receptors; assay: Induction of ovulation in pentobarbital-blocked female Wistar rats; details: subcutaneous
Description: as §1
Adult female Wistar rats are first monitored for normal estrous cyclicity by daily vaginal smears. After at least 2 regular 4-day cycles, they all receive an intraperitoneal injection of 50 mg/kg of sodium pentobarbital around 2:00 PM on the day of proestrus, which blocks the spontaneous ovulation in the negative control animals receiving in addition only the subcutaneous vehicle (PBS: phosphate buffered saline, 0.05 M, pH 7.4 containing 0.1% bovine serum albumin). At the same time, test animals are injected subcutaneously with LH-RH, standard LH-RH agonists or examples according to the formula (Ha), at various doses in solution in the vehicle described above. The following morning, the oviducts are excised and carefully dissected to search for ovocytes. None are found in the negative pentobarbital-blocked animals.
If effective, LH-RH agonists induce ovulation during the night between proestrus and estrus. The percentage of ovulating female rats, defined by the presence of at least one ovocyte in one of the two oviducts, is plotted as a function of the injected dose.

LH-RH receptors [3] = target: T1, LH-RH receptors; assay: Inhibition of ovulation in female Wistar rats; details: for antagonist activity (inhibition of ovulation), in words: subcutaneous, female Wistar rats
Description: The peptides according to the general formula (IIb) exert an antagonist activity upon the LH-RH receptors in vivo, resulting in the inhibition of ovulation in the female.
Adult female Wistar rats are first monitored for normal estrous cyclicity by daily vaginal smears. After at least 2 regular 4-day cycles, they received by subcutaneous injection either the vehicle alone (0.5 ml of a mixture of propylene-glycol and water: 20/80 vol/vol), or the LH-RH antagonist according to the formula (IIb) dissolved in this vehicle, around 2:00 PM on the day of proestrus.
If effective, LH-RH antagonists totally block ovulation. […] The 50% inhibitory dose of antide is slightly lower than 1 μg/rat.

Row | Structure (SMILES) | Total testosterone (LH-RH receptors [1]) | Number of ovulating females/total number of treated females (LH-RH receptors [3]; dose 5 μg/rat subcutaneous) | antagonist activity (inhibition of ovulation), in words (LH-RH receptors [3]) | also measured
1 | CCNC(=O)[C@@H]1CCCN1C(=O)[C@H](CCCNC(=N)N)NC(=O)[C@H](CC(C)C)N1CC[C@@]2(CCCN2C(=O)[C@H](Cc2ccc(O)cc2)NC(=O)[C@H](CO)NC(=O)[C@H](Cc2c[nH]c3ccccc23)NC(=O)[C@H](Cc2c[nH]cn2)NC(=O)[C@@H]2CCC(=O)N2)C1=O [Example 9, pGlu-His-Trp-Ser-Tyr-SPL-Leu-Arg-Pro-NEt] | 13.1 ± 1.0 ng/mL |  |  | ED50 (dose producing 50% of ovulation) (LH-RH receptors [2]): 3.5 nanograms/rat
2 | CCNC(=O)[C@@H]1CCCN1C(=O)[C@H](CCCNC(=N)N)NC(=O)[C@H](CC(C)C)N1CC[C@@]2(CCCN2C(=O)[C@H](Cc2ccc(O)cc2)NC(=O)[C@H](CO)NC(=O)[C@H](Cc2c[nH]c3ccccc23)NC(=O)[C@H](Cc2c[nH]cn2)NC(=O)CN(C)C(C)=O)C1=O [Example 10, AcSar-His-Trp-Ser-Tyr-SPL-Leu-Arg-Pro-NEt] | 9.5 ± 3.1 ng/mL |  |  | ED50 (dose producing 50% of ovulation) (LH-RH receptors [2]): 5.0 nanograms/rat
3 | CCNC(=O)[C@@H]1CCCN1C(=O)[C@H](CCCNC(=N)N)NC(=O)[C@H](CC(C)C)N1CC[C@@]2(CCCN2C(=O)[C@H](Cc2ccc(O)cc2)NC(=O)[C@H](CO)NC(=O)[C@H](Cc2cccc3ccccc23)NC(=O)[C@H](Cc2c[nH]cn2)NC(=O)[C@@H]2CCC(=O)N2)C1=O [Example 11, pGlu-His-INal-Ser-Tyr-SPL-Leu-Arg-Pro-NEt] | 11.4 ± 2.7 ng/mL |  |  | 
4 | CCNC(=O)[C@@H]1CCCN1C(=O)[C@H](CCCNC(=N)N)NC(=O)[C@H](CC(C)C)N1CC[C@@]2(CCCN2C(=O)[C@H](Cc2ccc(O)cc2)NC(=O)[C@H](CO)NC(=O)[C@H](Cc2ccc3ccccc3c2)NC(=O)[C@H](Cc2c[nH]cn2)NC(=O)[C@@H]2CCC(=O)N2)C1=O [Example 12, pGlu-His-Nal-Ser-Tyr-SPL-Leu-Arg-Pro-NEt] |  |  |  | ED50 (dose producing 50% of ovulation) (LH-RH receptors [2]): 4.6 nanograms/rat
5 | CCNC(=O)[C@@H]1CCCN1C(=O)[C@H](CCCNC(=N)N)NC(=O)[C@@H](N1CC[C@@]2(CCCN2C(=O)[C@H](Cc2ccc(O)cc2)NC(=O)[C@H](CO)NC(=O)[C@H](Cc2c[nH]c3ccccc23)NC(=O)[C@H](Cc2c[nH]cn2)NC(=O)[C@@H]2CCC(=O)N2)C1=O)C(C)(C)C [Example 17, pGlu-His-Trp-Ser-Tyr-SPL-Tle-Arg-Pro-NEt] | 9.1 ± 1.3 ng/mL |  |  | 
6 | CCCC[C@@H](C(=O)N[C@@H](CCCNC(=N)N)C(=O)N1CCC[C@H]1C(=O)NCC)N1CC[C@@]2(CCCN2C(=O)[C@H](Cc2ccc(O)cc2)NC(=O)[C@H](CO)NC(=O)[C@H](Cc2c[nH]c3ccccc23)NC(=O)[C@H](Cc2c[nH]cn2)NC(=O)[C@@H]2CCC(=O)N2)C1=O [Example 18, pGlu-His-Trp-Ser-Tyr-SPL-Nle-Arg-Pro-NEt] | 7.3 ± 1.6 ng/mL |  |  | 
7 | CCNC(=O)[C@@H]1CCCN1C(=O)[C@H](CCCNC(=N)N)NC(=O)[C@H](CC1CCCCC1)N1CC[C@@]2(CCCN2C(=O)[C@H](Cc2ccc(O)cc2)NC(=O)[C@H](CO)NC(=O)[C@H](Cc2c[nH]c3ccccc23)NC(=O)[C@H](Cc2c[nH]cn2)NC(=O)[C@@H]2CCC(=O)N2)C1=O [Example 19, pGlu-His-Trp-Ser-Tyr-SPL-Cha-Arg-Pro-NEt] | 11.7 ± 1.1 ng/mL |  |  | 
8 | CC(=O)N[C@H](Cc1ccc2ccccc2c1)C(=O)N[C@H](Cc1ccc(Cl)cc1)C(=O)N[C@H](Cc1cccnc1)C(=O)N[C@@H](CO)C(=O)N[C@@H](Cc1ccc(O)cc1)C(=O)N1CCC[C@@]12CCN([C@@H](CC(C)C)C(=O)N[C@@H](CCCNC(=N)N)C(=O)N1CCC[C@H]1C(=O)N[C@H](C)C(N)=O)C2=O [Example 23, AcDNal-DpClPhe-DPal-Ser-Tyr-SPL-Leu-Arg-Pro-DAlaNH2] |  | 6/6 | antagonist activity was detected | Number of ovulating females/total number of treated females (LH-RH receptors [3]; dose 10 μg/rat subcutaneous): 1/5
9 | CC(=O)N[C@H](Cc1ccc2ccccc2c1)C(=O)N[C@H](Cc1ccc(Cl)cc1)C(=O)N[C@H](Cc1cccnc1)C(=O)N[C@@H](CO)C(=O)N[C@@H](Cc1ccc(O)cc1)C(=O)N1CCC[C@@]12CCN([C@@H](CC(C)(C)C)C(=O)N[C@@H](CCCNC(=N)N)C(=O)N1CCC[C@H]1C(=O)N[C@H](C)C(N)=O)C2=O [Example 25, AcDNal-DpClPhe-DPal-Ser-Tyr-SPL-Npg-Arg-Pro-DAlaNH2] |  | 2/5 | antagonist activity was detected | 
10 | CC(=O)N[C@H](Cc1ccc2ccccc2c1)C(=O)N[C@H](Cc1ccc(Cl)cc1)C(=O)N[C@H](Cc1cccnc1)C(=O)N[C@@H](CO)C(=O)N[C@@H](CCCCNC(=O)c1cccnc1)C(=O)N1CCC[C@@]12CCN([C@@H](CC(C)(C)C)C(=O)N[C@@H](CCCNC(=N)N)C(=O)N1CCC[C@H]1C(=O)N[C@H](C)C(N)=O)C2=O [Example 26, AcDNal-DpClPhe-DPal-Ser-NicLys-SPL-Npg-Arg-Pro-DAlaNH2] |  | 1/5 | antagonist activity was detected | activity at the 50% inhibitory dose of antide, in words (LH-RH receptors [3]; 1 μg/rat): still active, although with a lower intensity; Number of ovulating females/total number of treated females (LH-RH receptors [3]; dose 1 μg/rat subcutaneous): 3/5
11 | CC(=O)N[C@H](Cc1ccc2ccccc2c1)C(=O)N[C@H](Cc1ccc(Cl)cc1)C(=O)N[C@H](Cc1cccnc1)C(=O)N[C@@H](CO)C(=O)N[C@@H](CCCCNC(C)C)C(=O)N1CCC[C@@]12CCN([C@@H](CC(C)(C)C)C(=O)N[C@@H](CCCNC(=N)N)C(=O)N1CCC[C@H]1C(=O)N[C@H](C)C(N)=O)C2=O [Example 27, AcDNal-DpCtPhe-DPal-Ser-IprLys-SPL-Npg-Arg-Pro-DAlaNH2] |  | 0/5 | antagonist activity was detected | Number of ovulating females/total number of treated females (LH-RH receptors [3]; dose 0.5 μg/rat subcutaneous): 3/5; Number of ovulating females/total number of treated females (LH-RH receptors [3]; dose 1 μg/rat subcutaneous): 0/5; potency compared with antide, in words (LH-RH receptors [3]; inhibition of ovulation): more potent than antide
12 | CC(=O)N[C@H](Cc1ccc2ccccc2c1)C(=O)N[C@H](Cc1ccc(Cl)cc1)C(=O)N[C@H](Cc1cccnc1)C(=O)N[C@@H](CO)C(=O)N[C@@H](Cc1ccc(O)cc1)C(=O)N1CCC[C@@]12CCN([C@@H](CC(C)(C)C)C(=O)N[C@@H](CCCCNC(C)C)C(=O)N1CCC[C@H]1C(=O)N[C@H](C)C(N)=O)C2=O [Example 28, AcDNal-DpCtPhe-DPal-Ser-Tyr-SPL-Npg-IprLys-Pro-DAlaNH2] |  | 2/5 | antagonist activity was detected | 
13 | CC(=O)N[C@H](Cc1ccc2ccccc2c1)C(=O)N[C@H](Cc1ccc(Cl)cc1)C(=O)N[C@H](Cc1cccnc1)C(=O)N[C@@H](CO)C(=O)N[C@@H](CCCCNC(=O)c1cccnc1)C(=O)N1CCC[C@@]12CCN([C@@H](CC(C)(C)C)C(=O)N[C@@H](CCCCNC(C)C)C(=O)N1CCC[C@H]1C(=O)N[C@H](C)C(N)=O)C2=O [Example 29, AcDNal-DpClPhe-DPal-Ser-NicLys-SPL-Npg-IprLys-Pro-DAlaNH2] |  | 0/5 | antagonist activity was detected | Number of ovulating females/total number of treated females (LH-RH receptors [3]; dose 1 μg/rat subcutaneous): 5/5
